This passage reports GI50 and TGI results from PubChem BioAssay (NCI).

Each structure is given as a SMILES string. “And” between values parts separate entries of the source, which are not always exact repeats. Identical values can stand only once.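 Interpolation was linear, between the two tested concentrations surrounding the appropriate level; five concentrations were tested over 48 hours in 96-well plates. Abbreviation: GI50, concentration required for 50% inhibition of growth. At the TGI there is no net growth.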 Square brackets hold non-standard residues; d marks the D form. Peptide text beside a SMILES is read from it. * marks the point of attachment. ξ: configuration not given here. NMeN = CN[C@@H](CC(N)=O)C(=O)O; NMeV = CN[C@H](C(=O)O)C(C)C; ξNMeV = CNC(C(=O)O)C(C)C; Boc = CC(C)(C)OC(=O)*; ξNMeA = CNC(C)C(=O)O; OBn = c1ccc(CO*)cc1 Where only a bound is given, the exact number is not on record here.

This experiment relates to NCI-H322M lung. As to the kind of experiment: growth of human tumour cells (NCI), 48 h.
As to `COc1cc2c(cc1OCCCCCCN1CCN(c3ncnc4ccccc34)CC1)N=CC1CCCN1C2=O` (centres undefined), the GI50 is 0.238 µM and the TGI is 0.679 µM. In the case of `O=C1C(=O)c2ccccc2C(O)=C1CN(CCCl)CCCl`, the TGI is > 100 µM.

`CC1(C)CC(n2cnc(-c3ccc(F)cc3)c2-c2ccnc(N)n2)CC(C)(C)N1`: the GI50 was > 25 µM and the TGI was > 25 µM. As for `COc1ccc(CNc2c3ccccc3nc3ccc(OC)cc23)cc1`, the GI50 was 3.04 µM and the TGI turned out to be 11 µM.

As for `CCCN1CCN(c2ccc3nc(-c4ccc5nc(-c6cc(OC)ccc6OC)[nH]c5c4)[nH]c3c2)CC1`, the GI50 was 1.87 µM and the TGI was 3.78 µM. With `COC(=O)C1=C(\c2ccccc2)c2ccccc2C(=O)N(C2CCCCC2)/C=C\1`, the TGI was > 100 µM. As to `Cc1cc(I)cc(CN(C)CCN2CCCC2)c1O`, the GI50 is 63.2 µM and the TGI is > 100 µM. As for `Nc1ccc2c3c(n(CCCCl)c(=O)c2c1)-c1cc2c(cc1C3=O)OCO2`, the GI50 was > 100 µM and the TGI is > 100 µM. Regarding `O=c1[nH]c2c3ccccc3ccc2c2cc3c(cc12)OCO3`, the TGI was > 100 µM. Same read-out and setting: the figure for `CC(NC(=O)CNC(=O)OC(C)(C)C)C(=O)NC(Cc1ccccc1)C(=O)OCc1ccccc1` (stereo not drawn) (Boc-Gly-Ala-Phe-OBn; configuration not given here) is > 100 µM; for `CC1(C)CCCCCCC2OC2CCCCCC(C)(C)C1=O` (centres undefined) it is > 100 µM.

For `CCOC(=O)/C(C#N)=C1\c2c([nH]c(=S)[nH]c2=O)Oc2ccc3ccccc3c21`, the TGI was > 100 µM. The same measure, in the same setting: the figure for `CC(=O)OCC1OC(N2C(C)=C(C(C)=O)C(c3ccco3)C(C#N)=C2S)C(OC(C)=O)C(OC(C)=O)C1OC(C)=O` (centres undefined) is > 100 µM; for `COc1cc(NCc2ccc3nc(OC)c(OC)nc3c2)cc(OC)c1OC` it is > 100 µM; for `COc1ccc(C(=O)OC2C=COC(C)C2OC(=O)c2ccc(OC)cc2)cc1` (centres undefined) it is > 100 µM.

With `O=[N+]([O-])c1ccc(N=Nc2c(O)ccc3ccccc23)cc1`, the TGI is > 100 µM. Still for that read-out and setting: the figure for `O=c1[nH]nc(Cc2ccccc2)n1/N=C/c1ccccc1Cl` is > 100 µM. In the case of `COc1ccc(-c2ccc(/C=N/n3c(COc4ccc(Cl)cc4Cl)nn(CN4CCN(C)CC4)c3=S)o2)c([N+](=O)[O-])c1`, the GI50 was 14.3 µM and the TGI amounted to 39.6 µM.

With `CCCCc1ccc(-n2c3nc(=O)n(C)c(=O)c-3nc3ccccc32)cc1`, the TGI worked out at 19.6 µM. Same read-out and setting: the figure for `N#Cc1sc2c(c1OC(=O)c1cccs1)c(=O)n(-c1ccccc1)c(=S)n2-c1ccccc1` is > 100 µM; for `CCCCCCCCCCC(O)C1CCC(C(O)CCC(O)C2CCC(CCCCCCC[C@H](O)CC3=C[C@@H](C)OC3=O)O2)O1` (some centres undefined) it is > 100 µM. On to `COC(=O)c1c2c(c(C)[n+]([O-])c1C)C(=O)C=C(NCc1ccc(OC)cc1)C2=O`, for which the GI50 was 2.27 µM and the TGI stood at 7.08 µM. The like results for `NC1CCCCC1N.O=S(=O)([O-])CCCN1CCOCC1.O=S(=O)([O-])CCCN1CCOCC1.[Pt+4]` were, in that order, 59.4 µM and > 100 µM.

On to `C1CCN(C2OC3C(COC3N3CCCCC3)OC2OC2CCO[C@@H]2N2CCCCC2)CC1` (some centres undefined), for which the TGI is > 100 µM.

As to `C(=NCc1ccccc1)c1ccccc1-c1ccccc1C=NCc1ccccc1`, the TGI was > 10 µM. As to `CCOC(=O)C(NC(=O)CC(C)C)(Nc1ccc(S(=O)(=O)Nc2nc(C)cc(C)n2)cc1)C(F)(F)F` (centres undefined), the TGI is > 100 µM.

As for `COC(=O)C(C)N(C)C(=O)[C@H](CC(N)=O)N(C)C(=O)[C@@H]1CCCN1C(=O)[C@H](C(C)C)N(C)C(=O)C(C(C)C)N(C)C(=O)[C@@H](NC(=O)OC(C)(C)C)C(C)C` (some centres undefined) (Boc-V[ξNMeV][NMeV]P[NMeN][ξNMeA]-OMe), the GI50 is > 100 µM and the TGI is > 100 µM. For the compound `NNc1nc2ccccc2s1`, the TGI is > 100 µM.

Turning to `O=C1NC2CCC(C2)C1c1ccccc1` (centres undefined), the TGI is > 100 µM. The same measure, in the same setting: the figure for `COc1cc(C(c2cc3c(cc2O)OCO3)N2CCCCC2)cc(OC)c1OC` (centres undefined) is > 66.4 µM. In the case of `C=CCN(CC=C)C(=O)c1cc(C)nc2c1c(=O)n(-c1ccccc1)c(=O)n2CC(O)CN1CCN(c2ncccn2)CC1` (centres undefined), the GI50 is > 100 µM and the TGI is > 100 µM.

As to `CCCCCCCCCCCCC(O)C1CCC(C(O)CCCCCCC(O)CCCCCCCC2=CC(C)OC2=O)O1` (centres undefined), the TGI is > 100 µM. Take `O=C1c2c(ccc3c2CCC3)CC12Cc1cc3c(cc1C2)CCC3`: the TGI was > 100 µM. Same read-out and setting: the figure for `CCCC(C)C[C@@H](C)CC(C)/C=C(\C)c1oc(=O)c(C)c(O)c1C` (some centres undefined) (tested in a mixture with another compound) is 29.9 µM. As to `O=c1[nH]ccc2nc(N3CCC(O)CC3)nc(Nc3cccc(C(F)(F)F)c3)c12`, the GI50 was 2.28 µM and the TGI was 29 µM. Turning to `CN(C)CC/C(=N\Nc1ccccc1)c1ccccc1`, the TGI is > 100 µM. In the case of `N#Cc1c(Cl)/c(=C/O)c(=O)n2c1nc1ccccc12`, the TGI was > 100 µM. Turning to `C=C1C(=O)[C@@]23CC1C(O)[C@@H](OC(C)=O)[C@@H]2C1(C)C(OC(C)=O)C[C@@H](OC(C)=O)C(C)(C)[C@@H]1C[C@H]3OC(C)=O` (some centres undefined), the GI50 was > 10 µM and 15.8 µg/mL; the TGI was > 10 µM and 29.4 µg/mL. In the case of `COc1cc(C2c3cc4c(cc3OC(Nc3ccccc3)C2C)OCO4)cc(OC)c1OC` (centres undefined), the TGI was > 27.3 µM. Still for that read-out and setting: the figure for `C[C@H]1C[C@H](C)c2ccccc2N(C)C1=Nc1ccccc1` is > 100 µM. Same read-out and setting: the figure for `COc1cc(NP(=O)(Oc2ccccc2)Oc2ccccc2)ccc1Nc1c2ccccc2nc2c1[nH]c1ccccc12` is > 70 µM.

Compound `Cc1occc1C(=S)Nc1ccc(Cl)c(/C=N/OC(C)C)c1` showed a TGI of 57 µM. Turning to `COc1ccc(C2=C(c3ccc(OC)c(OC)c3)C(=O)OC2)cc1`, the GI50 is 0.208 µM and the TGI was > 93.3 µM. In the case of `COc1cccc(-c2nc3sccn3c2-c2ccnc(NCCNS(=O)(=O)c3ccccc3)c2)c1`, the GI50 is 4.38 µM and the TGI was > 100 µM. In the case of `CC1(C)CCC[C@@]2(C)C1CC[C@H]1CC(O)C3(C)CCC12C3` (some centres undefined), the TGI was 31.5 µM. With `CN1CCCCCC(=N\O)/C(=N/O)CCCCC1`, the TGI was > 100 µM. On the same count and under the same terms, the figure for `COC1=C(N2CC2)C(=O)c2nc3n(c2C1=O)CCC3` is 4.23 µM. As to `O=C(Nc1ccc(F)cc1F)c1cc(Br)ccc1O`, the GI50 was 3.03 µM and the TGI is > 100 µM. On to `NC(CCP(=O)(O)CCC1C=CC=CC1)C(=O)O` (centres undefined), for which the TGI is > 100 µM.

For the compound `CC[O-].CC[O-].O=C1C(c2ccccc2)=C([O-])c2ccccc21.O=C1C(c2ccccc2)=C([O-])c2ccccc21.[Ti+4]`, the GI50 is > 100 µM and the TGI is > 100 µM.

`CCOC(=O)[C@@H]1ON2O[C@H](OC3CCCC3(c3ccccc3)c3ccccc3)C[C@H]3OC(=O)[C@@H]1C32` (some centres undefined): the TGI is > 100 µM. `C=CCN1C=CC(=O)[C@H](O[Si](C)(C)C(C)(C)C)[C@@H]1/C=C/c1ccccc1`: the GI50 is 15.3 µM and the TGI was 31.2 µM. For the compound `CSC1=N/C(=C\c2ccco2)C(=O)N1CN1CCCCC1`, the TGI was > 100 µM.

In the case of `O=C1NC(=S)NC(=O)C1=Cc1cccc2cc3ccccc3cc12`, the TGI came out at 10.8 µM. Same read-out and setting: the figure for `O=C(O)c1ccc2c(c1)CC1(C2)Cc2ccccc2C1=O` (centres undefined) is > 100 µM.

Turning to `Cc1cccc(C)c1NC(=S)NC=C(C(N)=O)C(N)=O`, the TGI is > 100 µM.
